Laboratory results: a collection of fitness landscapes (doi:10.1126/science.1257360)
Some of the results follow.

B1: PhoQ; a variant is named by its letters at X, in order, P23837 (parent)
chain: MKKLLRLFFPLSLRVRFLLATAAVVLVLSLAYGMVALIGYSVSFDKTTFRLLRGESNLFYTLAKWENNKLHVELPENIDKQSPTMTLIYDENGQLLWAQRDVPWLMKMIQPDWLKSNGFHEIEADVNDTSLLLSGDHSIQQQLQEVREDDDDAEMTHSVAVNVYPATSRMPKLTIVVVDTIPVELKSSYMVWSWFIYVLSANLLLVIPLLWVAAWWSLRPIEALAKEVRELEEHNRELLNPATTRELTSLVRNLNRLLKSERERYDKYRTTLTDLTHSLKTPLXXLQXXLRSLRSEKMSVSDAEPVMLEQISRISQQIGYYLHRASMRGGTLLSRELHPVAPLLDNLTSALNKVYQRKGVNISLDISPEISFVGEQNDFVEVMGNVLDNACKYCLEFVEISARQTDEHLYIVVEDDGPGIPLSKREVIFDRGQRVDTLRPGQGVGLAVAREITEQYEGKIVAGESMLGGARMEVIFGRQHSAPKDE

Variants of: B1
Assay: enrichment ratio after two sorts for PhoP signalling (ratio (wild type AVST 3.29)); higher = more functional
Conditions: with PhoP (E. coli)

Variant | enrichment ratio
LTDG | ≤ 0.25
WLMH | ≤ 0.25
LDMG | ≤ 0.25
YQQE | ≤ 0.25
EEGC | ≤ 0.25
FCWN | ≤ 0.25
LKST | ≤ 0.25
VLVS | ≤ 0.25
YPRW | ≤ 0.25
LCVE | ≤ 0.25
LDIS | ≤ 0.25
YLLM | 0.305
PEDF | ≤ 0.25
LQTP | ≤ 0.25
EDYL | ≤ 0.25
FETQ | ≤ 0.25
EQSE | ≤ 0.25
VQPR | ≤ 0.25
NQKA | ≤ 0.25
YWTG | ≤ 0.25
QHWD | ≤ 0.25
VWNL | ≤ 0.25
KKRG | ≤ 0.25
IVGS | ≤ 0.25

Variant | enrichment ratio
QGMY | ≤ 0.25
IHNW | ≤ 0.25
FKNC | ≤ 0.25
MSAW | 0.888
LHNN | ≤ 0.25
NQHL | ≤ 0.25
WDEE | ≤ 0.25
YYRS | ≤ 0.25
QRDP | ≤ 0.25
MERQ | ≤ 0.25
WAMC | ≤ 0.25
LTMQ | ≤ 0.25
RGIF | ≤ 0.25
RQFE | ≤ 0.25
AGIQ | 3.29
KLNI | ≤ 0.25
AFFQ | ≤ 0.25
RDHE | ≤ 0.25
PDKR | ≤ 0.25
WNWP | ≤ 0.25
VCTI | ≤ 0.25
PSNY | ≤ 0.25
WSPQ | ≤ 0.25
PHYV | ≤ 0.25

Variant | enrichment ratio
DGYS | ≤ 0.25
WQVT | ≤ 0.25
MLCA | ≤ 0.25
CALL | 1.78
AQIN | ≤ 0.25
AMCN | 3.93
RHRY | ≤ 0.25
IFDK | ≤ 0.25
VLTG | ≤ 0.25
WENE | ≤ 0.25
SGDS | ≤ 0.25
IQRS | ≤ 0.25
HIFR | ≤ 0.25
MQWH | ≤ 0.25
GLFS | ≤ 0.25
FRLT | ≤ 0.25
VMCR | ≤ 0.25
QYNQ | ≤ 0.25
RNYL | ≤ 0.25
LGKW | ≤ 0.25
FYQW | ≤ 0.25
PHAL | ≤ 0.25
QRSP | ≤ 0.25
EFIA | ≤ 0.25

Variant | enrichment ratio
CFCT | ≤ 0.25
YHHC | ≤ 0.25
KISY | ≤ 0.25
ASFY | 0.514
MAVS | ≤ 0.25
GEIP | ≤ 0.25
VSPQ | ≤ 0.25
GVTW | 0.962
IQDR | ≤ 0.25
LHAQ | ≤ 0.25
DVKH | ≤ 0.25
MLLP | ≤ 0.25
YGYA | ≤ 0.25
KGTK | ≤ 0.25
QYKR | ≤ 0.25
TCET | ≤ 0.25
AWYR | ≤ 0.25
YQCK | ≤ 0.25
FKQW | ≤ 0.25
AISD | ≤ 0.25
HDFE | ≤ 0.25
MKHR | ≤ 0.25
PVIW | ≤ 0.25
IVRA | ≤ 0.25

Variant | enrichment ratio
AWSF | ≤ 0.25
LPMP | ≤ 0.25
VPCV | ≤ 0.25
YVLC | ≤ 0.25
QMVP | ≤ 0.25
QSRR | ≤ 0.25
FKTE | ≤ 0.25
KKYC | ≤ 0.25
VAMI | 4.35
DEWI | ≤ 0.25
SWER | ≤ 0.25
TKCF | 10.9
AGRS | ≤ 0.25
NRHV | ≤ 0.25
VNAI | 2.16
IELY | ≤ 0.25
WPID | ≤ 0.25
MGIQ | ≤ 0.25
EEWC | ≤ 0.25
KLKK | ≤ 0.25
QPSR | ≤ 0.25
QSNS | 0.819
SRWN | ≤ 0.25
HFWG | ≤ 0.25

Variant | enrichment ratio
TPWN | ≤ 0.25
ERQA | ≤ 0.25
MRQI | ≤ 0.25
LFDR | ≤ 0.25
ITEA | ≤ 0.25
HYTN | ≤ 0.25
LCNL | ≤ 0.25
REST | ≤ 0.25
SFQF | ≤ 0.25
NFSG | ≤ 0.25
DPQC | ≤ 0.25
PDIN | ≤ 0.25
TYAY | ≤ 0.25
QITM | ≤ 0.25
AFGC | ≤ 0.25
IKDE | ≤ 0.25
GGRA | ≤ 0.25
LWYG | ≤ 0.25
IREG | ≤ 0.25
GAPR | ≤ 0.25
SAAY | 5.02
TWFE | ≤ 0.25
GGQQ | ≤ 0.25
LIIK | ≤ 0.25

Variant | enrichment ratio
MMCH | ≤ 0.25
DSQL | ≤ 0.25
MHRQ | ≤ 0.25
FWGD | ≤ 0.25
YIII | ≤ 0.25
VWFV | ≤ 0.25
IFHE | ≤ 0.25
DLMG | ≤ 0.25
LSFM | 7.16
HYGD | ≤ 0.25
THMD | ≤ 0.25
KRAL | ≤ 0.25
FVCA | ≤ 0.25
FPMV | ≤ 0.25
HQLD | ≤ 0.25
HFNP | ≤ 0.25
PAVM | ≤ 0.25
YVMY | ≤ 0.25
TSCK | 3.25
HRVP | ≤ 0.25
TLQK | ≤ 0.25
RLLI | ≤ 0.25
LFIF | ≤ 0.25
LQQV | ≤ 0.25

Variant | enrichment ratio
LPKN | ≤ 0.25
ELAS | ≤ 0.25
EHAF | ≤ 0.25
WALH | ≤ 0.25
TCCI | 7.17
PIMT | ≤ 0.25
IQGH | ≤ 0.25
DMSQ | ≤ 0.25
RIME | ≤ 0.25
LGVI | ≤ 0.25
AFHI | ≤ 0.25
NMDF | ≤ 0.25
TWPS | ≤ 0.25
YYTN | ≤ 0.25
HLNR | ≤ 0.25
WWAW | ≤ 0.25
VKDF | ≤ 0.25
FDNW | 1.84
EDIW | ≤ 0.25
GYRQ | ≤ 0.25
GLRW | ≤ 0.25
TKQM | 7.75
HMMG | ≤ 0.25
QRDI | ≤ 0.25

Variant | enrichment ratio
TFPM | ≤ 0.25
RDWG | ≤ 0.25
IWCV | ≤ 0.25
WGHG | ≤ 0.25
MNDY | ≤ 0.25
VLKL | ≤ 0.25
TANT | 2.62
MIFE | ≤ 0.25
PHLQ | ≤ 0.25
FKRW | ≤ 0.25
EKGP | ≤ 0.25
NFMI | ≤ 0.25
THKN | ≤ 0.25
GPLN | ≤ 0.25
FKFT | ≤ 0.25
KHQR | ≤ 0.25
DDHQ | ≤ 0.25
AQCV | 10.1
FLMK | ≤ 0.25
RILQ | ≤ 0.25
LWAQ | ≤ 0.25
DPRQ | ≤ 0.25
PVSD | ≤ 0.25
YEEY | ≤ 0.25

Variant | enrichment ratio
AIYI | 0.284
KEAP | ≤ 0.25
HSKT | ≤ 0.25
KIVF | ≤ 0.25
NSGR | ≤ 0.25
MVYG | ≤ 0.25
TFWP | ≤ 0.25
GKMQ | ≤ 0.25
GPYI | ≤ 0.25
RRNR | ≤ 0.25
GTNF | ≤ 0.25
LYCS | ≤ 0.25
MPKW | ≤ 0.25
SCSK | 14.3
PTCS | ≤ 0.25
WMLM | ≤ 0.25
AQEG | ≤ 0.25
FLWA | ≤ 0.25
PICS | ≤ 0.25
NPAD | ≤ 0.25
GRTE | ≤ 0.25
SCDG | ≤ 0.25
SLLR | 1.56
IGCE | ≤ 0.25

Variant | enrichment ratio
EFKW | ≤ 0.25
ESTS | ≤ 0.25
EPHH | ≤ 0.25
VRDR | ≤ 0.25
ECTA | ≤ 0.25
NTQW | ≤ 0.25
ADKY | ≤ 0.25
DQMC | ≤ 0.25
KAYL | ≤ 0.25
LSIK | ≤ 0.25
MGNQ | ≤ 0.25
TMWG | ≤ 0.25
YIHA | ≤ 0.25
FPME | ≤ 0.25
TWVL | ≤ 0.25
IFFV | ≤ 0.25
SLCV | 7.13
DQHD | ≤ 0.25
HQGG | ≤ 0.25
FQSE | ≤ 0.25
KVTM | ≤ 0.25
PTKN | ≤ 0.25
WVLQ | ≤ 0.25
AYGA | ≤ 0.25

Variant | enrichment ratio
EVGT | ≤ 0.25
DSAP | ≤ 0.25
EFEP | ≤ 0.25
NENR | ≤ 0.25
SGLA | 8.41
AGVW | ≤ 0.25
YTKP | ≤ 0.25
TWCT | ≤ 0.25
NTVF | ≤ 0.25
SKSA | ≤ 0.25
LQHH | ≤ 0.25
EMHV | ≤ 0.25
LSLA | 0.36
QGRE | ≤ 0.25
FDQA | ≤ 0.25
YKEG | ≤ 0.25
QEMI | 65.2
KAIK | ≤ 0.25
RLLV | ≤ 0.25
KTVT | ≤ 0.25
FLAG | ≤ 0.25
LCRK | ≤ 0.25
IANE | ≤ 0.25
FRYL | ≤ 0.25

Variant | enrichment ratio
QVNW | ≤ 0.25
NWPF | ≤ 0.25
QRNI | ≤ 0.25
QGYC | 13.7
GFMD | ≤ 0.25
FTHW | ≤ 0.25
MVNW | ≤ 0.25
LTFS | ≤ 0.25
EHPH | ≤ 0.25
VLQQ | ≤ 0.25
DDLD | ≤ 0.25
LTHC | ≤ 0.25
PNTH | ≤ 0.25
FWHF | ≤ 0.25
WGGR | ≤ 0.25
NGDS | ≤ 0.25
INVQ | ≤ 0.25
TGMR | 1.12
